In assay [1] the target is T1, VEGF-C (UniProt P49767 112-227, limits assumed).
T1 construct: Bought reagent
T1 sequence (looked up): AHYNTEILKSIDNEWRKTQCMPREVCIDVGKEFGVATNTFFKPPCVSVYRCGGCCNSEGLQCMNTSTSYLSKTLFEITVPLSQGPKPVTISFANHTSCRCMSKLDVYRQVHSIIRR
The assay is described as follows: ELISA, coated VEGF-C, anti-human Fc-HRP. For orientation: An ELISA detects its analyte on a solid surface through an enzyme-linked reagent.

In assay [2] the target is T2, VEGF-D (UniProt O43915 89-205, limits assumed).
T2 construct: Bought reagent
T2 sequence (looked up): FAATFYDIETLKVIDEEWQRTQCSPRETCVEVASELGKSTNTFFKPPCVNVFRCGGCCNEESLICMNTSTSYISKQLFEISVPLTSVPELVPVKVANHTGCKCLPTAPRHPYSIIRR
The assay is described as follows: blocking ELISA, VEGF-D-His to coated VEGFR2-Fc. The protocol:
(§1) During the blocking period, each recombinant receptor molecule was serially diluted from high to low concentrations, mixed evenly with 100 ng/well of VEGF-C or VEGF-D (both labeled with His-tag), allowing for incubation at room temperature for 30 minutes. […] The plates were washed with PBST, then anti-polyhistidine secondary antibody conjugated with horseradish peroxidase was added to allow for incubation and binding at room temperature for 1 hour. Then the plates were washed with PBST, TMB was added for color development, terminated with 5% hydrochloric acid solution, and finally, the OD values at 450 nm were read using a microplate reader.

Assay [3] deals with T1, VEGF-C. The assay is described as follows: blocking ELISA, VEGF-C-His to coated VEGFR2-Fc. On the procedure:
as §1

Assay [4] concerns the target T1, VEGF-C. The assay is described as follows: blocking ELISA, VEGF-C-His to coated VEGFR3-Fc. The protocol: (§2) During the blocking period, each recombinant receptor molecule was serially diluted from high to low concentrations, mixed evenly with 10 ng/well of VEGF-C or 500 ng/well of VEGF-D (both labeled with His-tag), allowing for incubation at room temperature for 30 minutes. […] The plates were washed with PBST, then TMB was added for color development, terminated with 5% hydrochloric acid solution, and finally, the OD values at 450 nm were read using a microplate reader.

Assay [5] deals with T2, VEGF-D. Put plainly: blocking ELISA, VEGF-D-His to coated VEGFR2-Fc; row head prints uM, ng/ml row implies nM. On the procedure: as §1
Assay [6] concerns the target T1, VEGF-C. Put plainly: blocking ELISA, VEGF-C-His to coated VEGFR3-Fc; row head prints uM, ng/ml row implies nM. On the procedure: as §2
For assay [7], the target named is T2, VEGF-D. The assay is described as follows: blocking ELISA, VEGF-D-His to coated VEGFR3-Fc. On the procedure: as §2
Assay [8] concerns the target T3, VEGF-A (isoform not given) (UniProt P15692-4 27-191, limits assumed).
T3 construct: May be the same reagent as VEGF-A165
T3 sequence (looked up): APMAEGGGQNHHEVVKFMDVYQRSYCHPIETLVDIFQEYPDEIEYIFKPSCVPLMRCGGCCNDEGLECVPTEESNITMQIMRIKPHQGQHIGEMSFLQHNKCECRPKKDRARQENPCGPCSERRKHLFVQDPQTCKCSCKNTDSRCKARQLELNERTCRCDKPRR
The assay is described as follows: SPR Biacore T200, trap captured on Protein A chip, antigen in flow. (In SPR one partner is held on a chip, and binding of the other changes the refractive index at the surface.)

In assay [9] the target is T4, VEGF-A165 (UniProt P15692-4 27-191).
T4 construct: Bought reagent
T4 sequence (looked up): T3 sequence (looked up)
Put plainly: ELISA, coated VEGF-A 165, anti-human Fc-HRP.

Assay [10] deals with T2, VEGF-D. The assay is described as follows: blocking ELISA: His-VEGF-D premixed with sample, binding to coated VEGFR2-Fc read with anti-His-HRP. On the procedure:
as §1

The target of assay [11] is T1, VEGF-C. Put plainly: blocking ELISA: His-VEGF-C premixed with sample, binding to coated VEGFR2-Fc read with anti-His-HRP. On the procedure: as §1
The target of assay [12] is T4, VEGF-A165. The assay is described as follows: blocking ELISA: His-VEGF-A165 premixed with sample, binding to coated VEGFR2-Fc read with anti-His-HRP.
Assay [13] deals with T2, VEGF-D. Put plainly: blocking ELISA: His-VEGF-D premixed with sample, binding to coated VEGFR3-Fc read with anti-His-HRP. The protocol: as §2
Assay [14] has as its target T4, VEGF-A165. The assay is described as follows: blocking ELISA: His-VEGF-A165 premixed with sample, binding to coated VEGFR2-Fc read with anti-His-HRP. The source holds these as a separate data set.
Assay [15] deals with T2, VEGF-D. The assay is described as follows: blocking ELISA: His-VEGF-D premixed with sample, binding to coated VEGFR2-Fc read with anti-His-HRP. The protocol:
as §1
This is another data set of the same source.

Assay [16] has as its target T1, VEGF-C. Put plainly: blocking ELISA: His-VEGF-C premixed with sample, binding to coated VEGFR2-Fc read with anti-His-HRP. The protocol: as §1
This is another data set of the same source.

Positions count from the first letter of the chain named. In names and notes the source's numbering stands. Several values for one entry are separate records, joined by “and”; a condition that tells them apart may be missing. Equal values may be shown once.

Usually EC50 stands for the midpoint of the concentration-response curve. High values mean a less potent agent, low ones a more potent agent. The Kd is the free concentration of one partner at which half of the binding sites on the other are occupied at equilibrium, for simple one-to-one binding. Read a low Kd as a tighter complex. The term koff denotes the rate constant with which the complex falls apart. A high value points to fast dissociation. By kon is commonly meant a measure of how fast the partners come together.

B1: LFV-001 Recombinant receptor molecule (Fc fusion)
chain: YSMTPPTLNITEESHVIDTGDSLSISCRGQHPLEWAWPGAQEAPATGDKDSEDTGVVRDCEGTDARPYCKVLLLHEVHANDTGSYVCYYKYIKARIEGTTAASSYVFVRDFEQPFINKPDTLLVNRKDAMWVPCLVSIPGLNVTLRSQSSVLWPDGQEVVWDDRRGMLVSTPLLHDALYLQCETTWGDQDFLSNPFLVHITGYRIYDVVLSPSHGIELSVGEKLVLNCTARTELNVGIDFNWEYPSSKHQHKKLVNRDLKTQSGSEMKKFLSTLTIDGVTRSDQGLYTCAASSGLMTKKNSTFVRVHEKGPG[here human IgG1 Fc without letters]
notes: also called LFV-001/V0
Consider B1, for which the EC50 in [1] is 3.3 nM and 0.399 µg/mL; in assay [2] it was 1.54 µg/mL; in assay [3], 3.59 µg/mL and 29.9 nM; in [4], 0.189 µg/mL; in [5], 12800 nM; in [6], 1570 nM. The concentration giving a half-maximal response (EC50) in assay [7] is 2.44 µg/mL and 20.3 nM. In addition, the Kd in assay [8] is 0.54 nM. In [8], this molecule gave a koff of 0.00152 s⁻¹. The same molecule came in with a kon in [8] of 2.82e+06 M⁻¹ s⁻¹.

B2: R3A (Fc fusion)
chain: YSMTPPTLNITEESHVIDTGDSLSISCRGQHPLEWAWPGAQEAPATGDKDSEDTGVVRDCEGTDARPYCKVLLLHEVHANDTGSYVCYYKYIKARIEGTTAASSYVFVRDFEQPFINKPDTLLVNRKDAMWVPCLVSIPGLNVTLRSQSSVLWPDGQEVVWDDRRGMLVSTPLLHDALYLQCETTWGDQDFLSNPFLVHITGNELYDIQLLPRKSLELLVGEKLVLNCTVWAEFNSGVTFDWDYPGKQAERGKWVPERRSQQTHTELSSILTIHNVSQHDLGSYVCKANNGIQRFRESTEVIVHE[here human IgG1 Fc without letters]
Consider B2, for which the EC50 in assay [1] is 0.162 µg/mL and 1.35 nM; in assay [2] it was 0.532 µg/mL; in assay [3] it was 7.81 µg/mL and 65.1 nM; in assay [4], 0.561 µg/mL; in assay [5], 4400 nM; in assay [6], 4670 nM. Moreover, the concentration giving a half-maximal response (EC50) in assay [7] was 2.45 µg/mL and 20.4 nM.

B3: LFV-D Recombinant receptor molecule (Fc fusion)
chain: YVQDYRSPFIASVSDQHGVVYITENKNKTVVIPCLGSISNLNVSLCARYPEKRFVPDGNRISWDSKKGFTIPSYMISYAGMVFCEAKINDESYQSIMYIVVVVGYRIYDVVLSPSHGIELSVGEKLVLNCTARTELNVGIDFNWEYPSSKHQHKKLVNRDLKTQSGSEMKKFLSTLTIDGVTRSDQGLYTCAASSGLMTKKNSTFVRVHEKPFVAFGSGMESLVEATVGERVRIPAKYLGYPPPEIKWYKNGIPLESNHTIKAGHVLTIMEVSERDTGNYTVILTNPISKEKQSHVVSLVVYVPPGPG[here human IgG1 Fc without letters]
Regarding B3, the EC50 in assay [1] is 1.6 nM and 0.192 µg/mL; in [2], 0.92 µg/mL; in [3], 58.3 µg/mL and 486 nM; in [4], 4.32 µg/mL; in [5], 7700 nM; in [6], 36000 nM. Also, the EC50 is 10 µg/mL and 83.7 nM in assay [7]; 0.476 µg/mL and 3.97 nM in assay [9].

B4: LFV-H (Fc fusion)
Fc fusion chain: SPFIASVSDQHGVVYITENKQKTVVIPCLGSISNLNVSLCARYPEKRFVPDGNRISWDSKKGFTIPSYMISYAGMVFCEAKINDESYQSIMYIVVVVGYRIYDVVLSPSHGIELSVGEKLVLNCTARTELNVGIDFNWEYPSSKHQHKKLVNRDLKTQSGSEMKKFLSTLTIDGVTRSDQGLYTCAASSGLMTKKNSTFVRVHEKGPG[here human IgG1 Fc without letters]
notes: also called LFV-H Recombinant receptor molecule
Take B4: the EC50 in [10] amounted to 4.77 nM; in [11] it was 26.7 nM; in [12] it was 4.26 nM; in [13], 4.08 nM.

B5: LFV-K Recombinant receptor molecule (Fc fusion)
chain: B4 Fc fusion chain with Q21N, N123Q
With B5, the EC50 in [14] turned out to be 2.74 nM; in assay [10], 1.82 nM; in [15] it was 1.27 nM; in [11], 25.9 nM; in assay [16], 6.54 nM; in [12], 3.05 nM. Moreover, in assay [13], the EC50 is 2.28 nM.

B6: LFV-L (Fc fusion)
Fc fusion chain: B4 Fc fusion chain with Q21N, N196Q
notes: also called LFV-L Recombinant receptor molecule
On to B6, for which the EC50 in assay [10] is 1.78 nM; in assay [11], 27 nM; in assay [12], 4.22 nM; in assay [13], 2.22 nM.

B7: LFV-J (Fc fusion)
Fc fusion chain: B4 Fc fusion chain with Q21N, N36Q
notes: also called LFV-J Recombinant receptor molecule
As for B7, the 50% effective concentration (EC50) was 5.16 nM in [10], 28.6 nM in assay [11], 11.9 nM in [12] and 3.3 nM in assay [13].

B8: LFV-F Recombinant receptor molecule (Fc fusion)
chain: GLPSVSLDLPRLSIQKDILTIKANTTLQITCRGQRDLDWLWPNNQSGSEQRVEVTECSDGLFCKTLTIPKVIGNDTGAYKCFYRETDLASVIYVYVQDYRSPFIASVSDQHGVVYITENKNKTVVIPCLGSISNLNVSLCARYPEKRFVPDGNRISWDSKKGFTIPSYMISYAGMVFCEAKINDESYQSIMYIVVVVGYRIYDVVLSPSHGIELSVGEKLVLNCTARTELNVGIDFNWEYPSSKHQHKKLVNRDLKTQSGSEMKKFLSTLTIDGVTRSDQGLYTCAASSGLMTKKNSTFVRVHEKPFVAFGSGMESLVEATVGERVRIPAKYLGYPPPEIKWYKNGIPLESNHTIKAGHVLTIMEVSERDTGNYTVILTNPISKEKQSHVVSLVVYVPPGPG[here human IgG1 Fc without letters]
For the molecule B8, the EC50 in assay [1] was 6.5 nM and 0.916 µg/mL; in [2], 0.522 µg/mL; in assay [3], 24 µg/mL and 171 nM; in assay [4], 2.92 µg/mL; in assay [5] it was 3700 nM; in assay [6], 20700 nM. Besides, the EC50 in assay [7] was 3.44 µg/mL and 24.4 nM; in [9], 0.983 µg/mL and 6.99 nM.
